Source: PubChem BioAssay AID1346428 (National Center for Advancing Translational Sciences (NCATS), 2018)
“And” between values parts separate entries of the source, which are not always exact repeats. Equal values may be shown once. The whole screen tested about 48,000 compounds, of which about 1,200 (2.5%) were called active. Inconclusive results (about 2%) are left out.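 How the source made its calls: active means activation of at least 60% and not above a set upper limit (about 1 call in 100 departs from these limits); inconclusive means activation of 40% to 60%, or above that upper limit; inactive means activation under 40%.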 The list shows a part of the results.

molecular target: Probable G-protein coupled receptor 32 (Homo sapiens) (UniProt O75388); assay: qHTS for Agonists of Human Resolvin D1 Receptor DRV1; conditions: CHO-K1 GPR32 beta-arrestin PathHunter luminescence, 90 min; at 76.9 µM; hits give high values; zero percent set by DMSO-only wells; further: 0% is about no effect
Sequence of UniProt O75388 (O75388 whole entry, looked up, the tested form may be a part): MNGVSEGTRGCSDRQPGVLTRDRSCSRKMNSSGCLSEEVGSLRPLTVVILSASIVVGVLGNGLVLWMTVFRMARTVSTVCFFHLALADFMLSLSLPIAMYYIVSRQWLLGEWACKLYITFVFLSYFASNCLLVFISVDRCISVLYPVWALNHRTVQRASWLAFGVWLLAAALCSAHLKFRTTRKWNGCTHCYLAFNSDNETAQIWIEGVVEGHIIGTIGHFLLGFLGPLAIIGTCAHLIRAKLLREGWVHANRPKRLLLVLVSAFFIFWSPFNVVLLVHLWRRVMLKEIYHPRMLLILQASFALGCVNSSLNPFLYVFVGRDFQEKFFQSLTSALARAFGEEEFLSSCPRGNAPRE
In short: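 GPR32 activation in stably transfected CHO-K1 cells, detected as beta-arrestin recruitment by enzyme-fragment complementation. Compound exposure: 90 min, 37 °C.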

activation, active:
O=C(CCNS(=O)(=O)c1ccc(Br)s1)Nc1ccc(Br)cc1 88.6%

activation, inactive:
CC(=O)N1CCc2cc(S(=O)(=O)CCC(=O)N3CCN(c4ccccc4F)CC3)ccc21 15.9%
Cc1ccccc1-c1noc(-c2cc(C(C)C)[nH]n2)n1 -10.9%
COc1ccccc1Cc1nc2ccccc2nc1SCC(=O)N1CCCc2ccccc21 -16.6%
CCOc1ccccc1N1CC(c2nc3ccccc3n2CCOc2ccccc2OC)CC1=O (stereo not given) -9.09%
CCN(CC)S(=O)(=O)c1ccc(C(=O)O)cc1 4.79%
COc1ccc(-c2nnc(SCC(=O)c3ccc([N+](=O)[O-])cc3)o2)cc1OC -2.1%
Cn1nc(-c2ccc(C(=O)Nc3ccc(OC(F)(F)F)cc3)cc2)c2ccccc2c1=O 14.8%
N#C/C(=C\c1ccc(-c2ccc(Cl)c(C(=O)O)c2)o1)c1nc2ccccc2[nH]1 -0.738%
Cc1ccc(-n2c(SCc3ccccc3C)nc3[nH]ncc3c2=O)cc1C -48%
O=C(NCc1ccccc1Cl)C(=O)NCC(c1cccs1)S(=O)(=O)c1ccccc1 (stereo not given) 0.0742%
Cc1cccn2c(=O)c3cc(C(=O)NC(C)c4ccccc4)c(=N)n(CCOCCO)c3nc12 (stereo not given) 3.11%
COc1ccc2c(c1)Cc1sc(NC(=O)c3ccc(Cl)cc3)nc1-2 -32.8%
CCCSc1ncc(Cl)c(C(=O)NCc2ccc(C)cc2)n1 -8.99%
COc1ccc(CNC(=O)CCS(=O)(=O)c2cc3c4c(c2)CCN4C(=O)CC3)cc1OC 0%
Cc1cc(Cl)ccc1NC(=O)CCS(=O)(=O)c1ccc2c(c1)CC(C)N2C(=O)C1CC1 (stereo not given) 1.31%
CCOC(=O)c1c(C)[nH]c(CCC(=O)NCc2cc(Br)ccc2OC)c1C -20.9%
COc1ccc(C2C(C(=O)Nc3cccnc3)=C(C)Nc3nc(-c4ccc(OC)c(OC)c4)nn32)cc1 (stereo not given) -2.92%
O=C(Nc1cc(Cl)ccc1O)c1cc(-c2ccc3c(c2)OCO3)on1 9.42%
Cc1c(C(=O)N2CCCC2)oc2c1-c1nn(CC(=O)NCc3ccccc3F)cc1CC2 -2.73%
CCc1nn2c(=O)c(S(=O)(=O)Nc3ccc(C)cc3C)c(C)nc2s1 -5.17%
COc1ccc(-c2nc(CSCC(=O)NCCc3ccc(OC)c(OC)c3)c(C)o2)cc1 -10.8%
Cc1sc(NC(=O)C2c3ccccc3Oc3ccccc32)c(C(=O)OC(C)C)c1C -13.9%
Cc1ccc(S(=O)(=O)c2nnn3c2nc(N(C)Cc2ccccc2)c2cc(Cl)ccc23)cc1C -12.8%
COc1ccccc1CNC(=O)c1cc2cccc3c2n1CCS3 -13.5%
CC(C)NC(=O)C1=CC(c2ccc3c(c2)OCO3)=NS(=O)(=O)N1C -4.96%
O=C(CS(=O)(=O)c1nc(-c2ccc(Cl)cc2)cn1-c1ccccc1)Nc1cccc(Cl)c1 -2.75%
O=C(Cn1c2ncccc2c(=O)n1-c1ccccc1)NCc1ccccc1 -16.1%
O=C(NCc1ccccc1Cl)c1cc(-c2ccccc2)n[nH]1 11.4%
Cc1oc(-c2cccc(Br)c2)nc1CN1CCC(C(=O)NCc2ccccc2)CC1 0.192%
Cc1ccc(NC(=O)c2ccc(F)c(S(=O)(=O)NCCc3ccccc3)c2)cc1F 20.2%
CC(C)NCC(O)c1cc(O)cc(O)c1 (stereo not given) 6.49% and 1.82%
Cc1nc(-c2ccccc2)sc1-c1ccc(SCC(=O)Nc2ccccc2)nn1 -11.5%
COc1cccc(CNC(=O)Cc2c(C)c3cc4c(C)coc4cc3oc2=O)c1 -8.95%
COc1cccc(C2C(C(N)=O)=C(C)Nc3nc(CCCO)nn32)c1 (stereo not given) -0.0788%
COc1cccc(NC(=O)c2csc3c2CCCCC3)c1 -34.9%
CCc1ccc(NC(=O)N2CCN(c3nnc(C)c4c(C)n(-c5ccc(Cl)cc5)nc34)CC2)cc1 4.08%
Cc1cc(C)cc(NC(=O)CSc2nccn2C2CCCC2)c1 -16.2%
c1ccc(Nc2c(-c3ccccc3)nc3ncccn23)cc1 0.0884%
Cc1ccc(CNCc2ccc3c(c2)n(C)c(=O)n3C)cc1 -4.16%
COc1cc(NS(=O)(=O)c2ccc(NC(=O)COc3ccc(Cl)cc3Cl)cc2)nc(OC)n1 -11.8%
CCOc1cccc(CC(=O)NCc2ccc3c(c2)CCN3C(=O)c2cccc(C)c2)c1OCC -1.19%
COc1ccc(CN(C(=O)Nc2cc(C)ccc2C)C2CCN(C(C)=O)CC2)cc1 -9.39%
CCN1C(=O)c2ccccc2Sc2ccc(NC(=O)Cc3ccc(OC)c(OC)c3)cc21 -4.9%
COc1ccc2c(c1)c(=O)c(S(=O)(=O)c1ccc(F)cc1)cn2CC(=O)Nc1ccc(C)cc1C 11.5%
O=C(NCc1ccccc1Cl)C(=O)NCC(c1ccc2c(c1)OCO2)N1CCOCC1 (stereo not given) -13.6%
COc1ccc(CNC(=O)c2cnc3sc4cc(OC)ccc4n3c2=O)cc1 3.03%
CCOc1ccc(NC(=O)CSc2nc(-c3ccccc3)c3cc(OCC)ccc3n2)cc1 -16.6%
CCOc1ccccc1N(CC)C(=O)Cn1ncc2c1-c1ccccc1OC2 28.3%
O=C(c1cc(S(=O)(=O)N2CCCC2)c[nH]1)N1CCN(c2cccc(Cl)c2)CC1 -1.63%
CCOc1ccc2nc(N(Cc3cccnc3)C(=O)c3ccco3)sc2c1 -26.1%
CCC(CC)C(=O)N1CCc2cc(OC)c(OC)cc2C1COc1ccc2c(C)cc(=O)oc2c1 (stereo not given) -4.19%
COc1ccc(CNC(=O)C2CCN(C(=O)N3CCOc4ccc(C)cc43)CC2)cc1 -7.62%
CCc1cc(C(=O)N2CCN(c3ccccc3)CC2)no1 11.1%
CC1CCCN(C(=O)c2ccc(CSc3nc4ccncc4n3Cc3ccccc3)cc2)C1 (stereo not given) -7.72%
